Assay results published in PubChem BioAssay AID1347120 (National Center for Advancing Translational Sciences (NCATS), 2019).
Hit rate of the full screen: of about 390,000 compounds, about 930 (0.24%) were called active. Inconclusive results, whose numbers are uncertain, are shown with a selection of clear calls. Calls follow the shape of the dose curve; as a rule, active = well fitted activation curve with a large enough effect; inconclusive = small, poorly fitted or top-dose-only effect; inactive = no such curve, though single readings can be large or run the other way. Potencies beside an inconclusive call are fits to weak or partial responses and may not hold up.
Potency is read from the fitted curve at half-maximal effect; tags tell the direction and shape of the fitted curve.

Experiment: qHTS for Suppressors of FUS Proteinopathy: Primary screen using FUS-linked yeast assay; also: nearly all actives have a fitted effect of over 55% in size;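 as to growth rescue (activation): plate controls were DMSO vehicle for no effect and reference control for full effect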
Details: S. cerevisiae FUS-expressing, OD600, 24 h; Potency: growth rescue; growth rescue (activation): at 76.6 µM (top of the series)
Summary of the method: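 Restored growth of FUS-toxic S. cerevisiae, read as 600 nm absorbance after 24 h at 30C in galactose medium (starting OD 0.005). Controls CP55940 and DMSO.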
With `Cc1ccc(C)c(Cn2c(=O)n(CCCCC(=O)NCc3ccc4c(c3)OCO4)c(=O)c3ccccc32)c1` the Potency was “inactive”. For `COc1ccc(CNC(=O)C2(CC3CC(c4ccccc4)=NO3)CCN(C(=O)OC(C)(C)C)CC2)cc1` (stereo not drawn), the Potency was inconclusive: 28.2 µM [activator, partial curve, poor fit]. In the case of `O=C1Nc2ccccc2-n2nnnc2C1N1CCN(c2ccc(C(F)(F)F)cc2[N+](=O)[O-])CC1` (stereo not drawn), the Potency is reported as inconclusive: 35.5 µM [activator, single point]. In the case of `Cc1ccc(N2C(=O)c3n[nH]c(C)c3C2c2ccc(Cl)cc2)cc1` (stereo not drawn), the Potency is reported as “inactive”. For `Cc1ccn2c(NCc3ccccc3)c(-c3cccc(SC4CCCCC4)c3)nc2c1`, the Potency was inconclusive: 25.1 µM [activator, single point]. For `CCOc1ccc(C2=CS/C(=C(\C#N)c3nnc4n3CCCCC4)N2CC)cc1`, the Potency was “inactive”. In the case of `Cc1cccc(-c2cccc3c4c([nH]c23)[C@@H]2C[C@H](N(C)C(=O)c3ccco3)[C@H]([C@H](C)O)C(=O)N2CC4)c1`, the Potency is reported as inconclusive: 25.1 µM [activator, single point]. In the case of `c1ccc2c(c1)NC1(CCCCC1)n1c-2nc2ccccc21`, the growth rescue (activation) is reported as inconclusive: 70.7% [activator]. In the case of `CCCCNC(=O)C1CCC(Cn2c(=O)c3sccc3n(Cc3ccccc3)c2=O)CC1` (stereo not drawn), the Potency is reported as “inactive”. In the case of `O=C1NC(Cc2ccccc2)c2nc3ccc(Br)cc3c(=O)n2-c2cc3ccccc3cc21` (stereo not drawn), the Potency is reported as inconclusive: 28.2 µM [activator, single point]. With `CC[C@@]12C(=O)N(c3cccc(Cl)c3)C(=O)N1[C@H](c1ccc(Br)cc1)[C@@H]1C(=O)N(C(C)(C)C)C(=O)[C@@H]12` the Potency was inconclusive: 7.94 µM [activator, partial curve]. In the case of `CCOC(=O)C1=C(C)Nc2ncnn2C1c1cccs1` (stereo not drawn), the growth rescue (activation) is reported as inconclusive: 52.4% [activator]. For `COc1ccc(-c2nc3ccccc3n3c(-c4cccc(C)c4)c4c(=O)n(C)c(=O)n(C)c4c23)cc1OC`, the Potency was inconclusive: 28.2 µM [activator, single point]. In the case of `O=S(=O)(c1cccs1)N1CCN(S(=O)(=O)c2cccs2)CC1`, the Potency is reported as “inactive”. In the case of `CCOc1ccc(-n2c(SCC(=O)Nc3ccccc3-c3ccccc3)nnc2-c2cccs2)cc1`, the Potency is reported as inconclusive: 14.1 µM [activator, partial curve, poor fit]. In the case of `C#CCOCCOCCOCCNc1nc(N2CCN(C(=O)CCCCCCCCCCNC(=O)[C@@H](CCC(=O)O)n3cc(CCCCCN)nn3)CC2)nc(N2CCN(C(=O)CCCCCCCCCCNC(=O)[C@H](CO)n3cc(CCCCCN)nn3)CC2)n1`, the Potency is reported as inconclusive: 11.2 µM [activator, partial curve]. With `COc1ccc(C(=O)Nc2ccc(C(F)(F)F)n(C)c2=O)cc1` the Potency was inconclusive: 2.82 µM [activator, full curve]. In the case of `NC(=S)NN=C(Cc1ccccc1)Cc1ccccc1`, the Potency is reported as “inactive”. For `CCN(CC)CCCNC(=O)c1cc(-c2ccccc2)c(N2CCCCC2)s1`, the Potency was inconclusive: 11.2 µM [activator, single point]. With `CC1CCc2c(cc(-c3ccccc3)n2-c2ccc(C(=O)NC(C)C)cc2)C1` (stereo not drawn) the Potency was “inactive”. For `CC(=O)c1ccc(S(=O)(=O)N2CCn3cccc3C2c2ccccc2F)cc1` (stereo not drawn), the Potency was inconclusive: 15.8 µM [activator, partial curve, poor fit]. For `CC[C@]12c3[nH]c4ccc(Cl)cc4c3CCN1C(=O)[C@@H](CC(=O)NCc1cccc(C(F)(F)F)c1)C[C@@H]2C(=O)N1CCN(C(=O)c2ccco2)CC1`, the Potency was inconclusive: 20 µM [activator, partial curve, poor fit]. With `COc1ccc(C2CC(c3ccc(Cl)cc3Cl)Nc3nc(N)nn32)cc1` (stereo not drawn) the Potency was inconclusive: 31.6 µM [activator, single point]. In the case of `O=c1c2c(nc(NCCO)n1CC1CCCCC1)-c1ccccc1CC21CCCC1`, the Potency is reported as inconclusive: 12.6 µM [activator, partial curve]. In the case of `Cc1ccc(-n2c(=O)c3c4c(sc3n(Cc3cc(=O)n5cc(Cl)ccc5n3)c2=O)CCC4)cc1C`, the Potency is reported as “inactive”. For `O=C(/C=C1\NC2(CCCC2)Cc2ccccc21)C(=O)N/N=C/c1ccc(O)c(O)c1`, the Potency was inconclusive: 31.6 µM [activator, partial curve, poor fit]. For `CCC(C(=O)NCCc1ccccc1)n1nc(C)c2sc3ccccc3c2c1=O` (stereo not drawn), the Potency was “inactive”. With `COc1cccc(-c2sc3ccc(OC)cc3c2C#CCCO)c1` the Potency was inconclusive: 50.1 µM [activator, single point]. For `O=C(C1CCN(c2ncnc3c2nc2n3CCCCC2)CC1)N1CCN(c2ccccc2F)CC1`, the Potency was “inactive”. For `Cc1cccc(NC(=O)C(C)N2C(=O)C3C4CC(C(Br)C4Br)C3C2=O)c1` (stereo not drawn), the Potency was inconclusive: 50.1 µM [activator, partial curve, poor fit]. With `CCOc1cc(C=C(C(=O)OC)C(=O)OC)ccc1OCc1ccc([N+](=O)[O-])cc1` the Potency was inconclusive: 50.1 µM [activator, single point]. In the case of `CCSc1ncc(Cl)c(C(=O)Nc2nnc(CC)s2)n1`, the Potency is reported as “inactive”. For `O=S1(=O)C=CCN1Cc1cn(Cc2ccc(C(F)(F)F)cc2)nn1`, the Potency was “inactive”. With `CCCNc1c(NS(=O)(=O)c2ccc(Br)cc2)c(=O)oc2ccccc12` the Potency was “inactive”. With `O=S1(=O)c2ccc(N3CCC[C@H]3CO)cc2O[C@@H]2CCN1C2` the Potency was “inactive”. In the case of `O=C1C=C(c2ccnc3cc(Cl)ccc23)C[C@@H](c2ccc3c(c2)OCO3)C1`, the Potency is reported as inconclusive: 35.5 µM [activator, single point]. With `CN(CCNC(=O)c1cc2c(=O)n(C)c3ccccc3c2n1C)Cc1ccccc1` the Potency was “inactive”. For `COc1ccc(NC(=O)CSc2nccn2Cc2ccccc2)c(OC)c1`, the Potency was inconclusive: 31.6 µM [activator, partial curve, poor fit]. With `CCOc1ccc(NC(=O)c2cccc(OC(=S)N3CCC(C)CC3)c2)cc1` the Potency was inconclusive: 35.5 µM [activator, partial curve, poor fit]. In the case of `COc1ccc(-n2nc3cc(C)c(NC(=O)c4ccc(-c5ccc(Cl)cc5)o4)cc3n2)cc1`, the Potency is reported as “inactive”. For `COc1cc2cnc(-c3ccccc3)c(C(=O)c3ccc(F)cc3)c2cc1OC`, the Potency was inconclusive: 35.5 µM [activator, partial curve, poor fit]. In the case of `Cc1ccccc1Nc1nnc(SCC(=O)NC(=O)NCc2ccco2)s1`, the Potency is reported as inconclusive: 35.5 µM [activator, partial curve]. In the case of `CCC[C@H]1[C@@H](OC(=O)N2CCN(c3ccccc3)CC2)CC[C@@]23CCCN2C(=O)CCC[C@@H]13`, the Potency is reported as inconclusive: 15.8 µM [activator, partial curve, poor fit]. For `Cc1cnc(C(=O)OCC(=O)Nc2cc(-c3cc(C)c(C)cc3C)nn2-c2ccccc2)cn1`, the Potency was inconclusive: 39.8 µM [activator, single point]. In the case of `Cc1cc(N2CCN(C(=O)Oc3ccc(C(F)(F)F)cc3)CC2)c2ccccc2n1`, the Potency is reported as “inactive”. In the case of `Cc1ccc2c(c1)C(c1ccc(F)cc1)N(C(=O)c1ccc(S(=O)(=O)N3CCCCC3)cc1)CC(=O)N2` (stereo not drawn), the Potency is reported as active: 31.6 µM. For `C=CCN1C(=O)[C@H](CC(=O)NCc2cccs2)[C@@]2(C(=O)OCC)CCCC=C12`, the Potency was “inactive”. For `CCC(=O)N1CCc2cc(Br)cc(S(=O)(=O)CCC(=O)N3CCN(c4cccc(C)c4)C(C)C3)c21` (stereo not drawn), the Potency was inconclusive: 22.4 µM [activator, partial curve, poor fit]. For `CC(C)[C@H](NC(=O)[C@@H]1Cc2c([nH]c3ccccc23)C2c3ccccc3C(=O)N21)C(=O)NCC1CCCO1` (stereo partly drawn), the Potency was inconclusive: 31.6 µM [activator, single point]. For `COc1ccc([C@H]2/C=C\CN(C(=O)CC(C)(C)C)[C@@H](C)C(=O)N2Cc2ccc(F)cc2)cc1`, the Potency was “inactive”. For `CCOCCCNC(=O)c1ccc(-n2c(-c3ccccc3)cc3c2CCC(C)C3)cc1` (stereo not drawn), the Potency was inconclusive: 50.1 µM [activator, single point]. In the case of `CC1CCCC(C)N1S(=O)(=O)c1ccc(NC(=O)CNC2CCCC2)cc1` (stereo not drawn), the Potency is reported as inconclusive: 28.2 µM [activator, single point]. For `CCCCn1cnc2cc(NCc3ccccc3Cl)ccc21`, the Potency was “inactive”. In the case of `Cc1cccc(/C=C/c2onc(C)c2S(=O)(=O)N2CCC(C(=O)N3CCCCC3)CC2)c1`, the Potency is reported as inconclusive: 7.08 µM [activator, partial curve]. In the case of `Cc1ccc(-n2ncc3c(Nc4cccc(C(=O)O)c4)ncnc32)cc1`, the Potency is reported as inconclusive: 44.7 µM [activator, single point]. In the case of `Cc1cc(C)c2c(CC(=O)Nc3ccc(S(=O)(=O)Nc4nc(C)cc(C)n4)cc3)coc2c1`, the Potency is reported as inconclusive: 35.5 µM [activator, single point]. For `CC(C)(C)c1csc(N(CCC#N)CCC#N)n1`, the Potency was “inactive”. With `CC(=O)N1CCCc2cc(S(=O)(=O)N3CCCC(C(=O)N4CCN(c5ccccc5)CC4)C3)ccc21` (stereo not drawn) the Potency was “inactive”. For `CCOc1ccc(S(=O)(=O)N2CCCCC2)cc1NC(=O)Cc1cccc(C(F)(F)F)c1`, the Potency was “inactive”. For `O=C1C(Cc2ccccc2)Nc2ncnc(N3CCCCC3)c2N1Cc1ccc(Br)cc1` (stereo not drawn), the Potency was inconclusive: 31.6 µM [activator, single point]. In the case of `COc1cccc(NC(=O)N(C)C[C@H]2Oc3cc(Br)ccc3S(=O)(=O)N([C@H](C)CO)C[C@H]2C)c1`, the Potency is reported as inconclusive: 14.1 µM [activator, partial curve, poor fit]. With `Cn1c(C(=O)Nc2ccccc2)cc2sccc21` the Potency was “inactive”. With `CC(C)C[C@@H](CN1CCCC1CN1C(=S)NC[C@@H]1Cc1ccc(O)cc1)N1C[C@H](Cc2ccc(O)cc2)N(CCc2ccccc2)C1=S` (stereo partly drawn) the Potency was inconclusive: 35.5 µM [activator, single point].
